Our source for the IC50 values is US9714221B1 (priority 2016, dated 2017).

For the test, the system named is MCF7 cells (breast tumor cells) WT. In words: cells. Particulars: Homo sapiens, read-out: proliferation MCF7 (WT) IC50 (nM).
Turning to `Cn1nnc2ccc(C3=C(c4ccc(O[C@H]5CCN(CCCF)C5)cc4)c4ccc(O)cc4CCC3)cc21` [Example 179, 5-[4-[(3S)-1-(3-fluoropropyl)pyrrolidin-3-yl]oxyphenyl]-6-(3-methylbenzotriazol-5-yl)-8,9-dihydro-7H-benzo[7]annulen-2-ol], the IC50 was 1 nM.
With `Oc1ccc2c(c1)CCCC(C1=CCOCC1)=C2c1ccc(O[C@H]2CCN(CCCF)C2)cc1` [Example 202, 6-(3,6-dihydro-2H-pyran-4-yl)-5-{4-[(S)-1-(3-fluoro-propyl)-pyrrolidin-3-yloxy]-phenyl}-8,9-dihydro-7H-benzocyclohepten-2-ol] the figure was 0.3 nM; with `Oc1ccc2c(c1)CCCC(c1ccc(C(F)(F)F)nc1F)=C2c1ccc(O[C@H]2CCN(CCCF)C2)cc1` [Example 129, 5-[4-[(3S)-1-(3-fluoropropyl)pyrrolidin-3-yl]oxyphenyl]-6-[2-fluoro-6-(trifluoromethyl)-3-pyridyl]-8,9-dihydro-7H-benzo[7]annulen-2-ol], 0.1 nM; with `CCOc1ncc(C2=C(c3ccc(O[C@H]4CCN(CCCF)C4)cc3)c3ccc(O)cc3CCC2)cn1` [Example 107, 6-(2-ethoxypyrimidin-5-yl)-5-[4-[(3S)-1-(3-fluoropropyl)pyrrolidin-3-yl]oxyphenyl]-8,9-dihydro-7H-benzo[7]annulen-2-ol], 0.5 nM.
Regarding `Cc1ccc(C2=C(c3ccc(O[C@H]4CCN(CCCF)C4)cc3)c3ccc(C(=O)O)cc3CCC2)c(F)c1` [Example 48, 6-(2-fluoro-4-methyl-phenyl)-5-[4-[(3S)-1-(3-fluoropropyl)pyrrolidin-3-yl]oxyphenyl]-8,9-dihydro-7H-benzo[7]annulene-2-carboxylic acid], the IC50 was determined as 0.7 nM.
The result for `CC1(C)Cc2cc(C3=C(c4ccc(O[C@H]5CCN(CCCF)C5)cc4)c4ccc(O)cc4CCC3)ccc2O1` [Example 98, 6-(2,2-dimethyl-3H-benzofuran-5-yl)-5-[4-[(3S)-1-(3-fluoropropyl)pyrrolidin-3-yl]oxyphenyl]-8,9-dihydro-7H-benzo[7]annulen-2-ol] reads 0.4 nM; that for `CCOc1cc(C)c(C2=C(c3ccc(O[C@H]4CCN(CCCF)C4)cc3)c3ccc(O)cc3CCC2)cn1` [Example 139, 6-(6-ethoxy-4-methyl-3-pyridyl)-5-[4-[(3S)-1-(3-fluoropropyl)pyrrolidin-3-yl]oxyphenyl]-8,9-dihydro-7H-benzo[7]annulen-2-ol], 0.1 nM; that for `Cc1cccc(C2=C(c3ccc(O[C@H]4CCN(CCCF)C4)cc3)c3ccc(O)cc3CCC2)c1C` [Example 31, 6-(2,3-dimethylphenyl)-5-[4-[(3S)-1-(3-fluoropropyl)pyrrolidin-3-yl]oxyphenyl]-8,9-dihydro-7H-benzo[7]annulen-2-ol], 4 nM.
The result for `COc1ccc(C2=C(c3ccc(O[C@H]4CCN(CCCF)C4)cc3)c3ccc(O)cc3CCC2)c(F)c1F` [Example 93, 6-(2,3-difluoro-4-methoxy-phenyl)-5-[4-[(3S)-1-(3-fluoropropyl)pyrrolidin-3-yl]oxyphenyl]-8,9-dihydro-7H-benzo[7]annulen-2-ol] reads 0.2 nM.
The result for `Cc1cncc(C2=C(c3ccc(O[C@H]4CCN(CCCF)C4)cc3)c3ccc(O)cc3CCC2)c1` [Example 96, 5-[4-[(3S)-1-(3-fluoropropyl)pyrrolidin-3-yl]oxyphenyl]-6-(5-methyl-3-pyridyl)-8,9-dihydro-7H-benzo[7]annulen-2-ol] reads 0.8 nM; that for `O=C(O)c1ccc2c(c1)CCCC(c1ccc(SC(F)(F)F)cc1)=C2c1ccc(O[C@H]2CCN(CCCF)C2)cc1` [Example 177, 5-[4-[(3S)-1-(3-fluoropropyl)pyrrolidin-3-yl]oxyphenyl]-6-[4-(trifluoromethylsulfanyl)phenyl]-8,9-dihydro-7H-benzo[7]annulene-2-carboxylic acid], 11 nM; that for `Oc1ccc2c(c1)CCCC(c1ccc3c(c1)CCN3)=C2c1ccc(O[C@H]2CCN(CCCF)C2)cc1` [Example 21, 5-[4-[(3S)-1-(3-fluoropropyl)pyrrolidin-3-yl]oxyphenyl]-6-indolin-5-yl-8,9-dihydro-7H-benzo[7]annulen-2-ol], 23 nM.
